Laboratory results: PubChem BioAssay AID1508642 (National Center for Advancing Translational Sciences (NCATS), 2021)
Out of some 43,000 compounds screened, about 200 (0.47%) were called active. Roughly 12% stayed inconclusive and do not appear here. Calls come from the whole dose curve; as a rule, active = well fitted cell-killing curve with a large enough effect; inconclusive = small, poorly fitted or top-dose-only effect, or effect the other way; inactive = flat fitted curve, though single readings scatter. Some of the results follow.

Assay: Cell viability qHTS assay in S16 Pmp22-F2sN cells; note: nearly all actives have a fitted effect of over 65% in size
Conditions: S16 Pmp22-F2sN Schwann cells (luciferase reporters placed in the Pmp22 gene) viability, CellTiter-Glo, 24 h; series mostly up to 57.5 µM; activity change, negative = cytotoxicity: at the top concentration
In short: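 CellTiter-Glo counter-screen, qHTS, 1536-well. Cells: S16(c9) Pmp22-F2sN, 500-1,000/well in DMEM + 10% FBS. Cpd 23 nL pin transfer, 24 h, 37C/5% CO2. Read: luminescence, CCD imager.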
% is set by controls: 0 for no effect and ±100 for the full control effect.

Compound | activity change, negative = cytotoxicity
C#CC(C)(CC)NC(=O)Cn1nnc(-c2ccc(OCc3ccccc3F)cc2)n1 (stereo not drawn) | inactive: -5.04%
Cc1cc(NC(=O)c2ccc(-c3ccc(Cl)cc3)o2)cc(-c2nc3ncccc3o2)c1O | inactive: 20.5%
Cc1ccc(CNC(=O)c2cnc(N(C)C)nc2)cc1 | inactive: 7.01%
CCCCN(C)CCNC(=O)c1cc(=O)[nH]c2ccc(S(=O)(=O)N3CCCCCC3)cc12 | inactive: -1.12%
Cc1ccc(NC(=O)c2ncn(-c3ccccc3)n2)cc1Cl | inactive: -7.01%
COc1ccc(NC(=O)c2oc3ccccc3c2NC(=O)c2cc(=O)c3c(C)cc(C)cc3o2)cc1 | inactive: -0.439%
Cc1nc(-n2nc(C)c(Cc3ccccc3Cl)c2C)sc1C(=O)N1CCCCC1C (stereo not drawn) | inactive: -8.77%
COc1ccc(-c2nc(C(=O)Nc3cccc(C(C)=O)c3)nn2-c2ccc(Cl)cc2)cc1 | inactive: 4.57%
Cc1cc(NC(=O)CCCn2c(C)c3cnn(-c4ccccc4)c(=O)c3c2C)ccc1Br | inactive: -6.09%
Cc1cc(C)cc(C(=O)N(Cc2nc(-c3ccc(Cl)cc3)no2)C(C)C)c1 | inactive: -17%
CCOc1ccccc1NC(=O)CN1C(=O)CC(c2ccco2)Sc2ccccc21 (stereo not drawn) | inactive: 0.213%
O=S(=O)(c1ccc2ccccc2c1)n1nc(-c2ccco2)nc1NCc1ccc(F)cc1 | inactive: 6.01%
COCCNC(=O)C(=O)NCC(c1ccc2c(c1)OCO2)N1CCOCC1 (stereo not drawn) | inactive: 0.394%
COC(=O)c1ccc(OCC(O)Cn2cnc3cc(C)c(C)cc32)cc1 (stereo not drawn) | inactive: 6.98%
CCN(C(=O)CSc1ncc(S(=O)(=O)c2ccc(C)c(Cl)c2)c(=O)[nH]1)c1cccc(C)c1 | inactive: -3.65%
CC(=O)c1cccc(S(=O)(=O)NCCc2csc3nc(-c4ccc(F)cc4)nn23)c1 | inactive: -16.9%
Cc1nc(CC(=O)Nc2cccc(C)c2C)cs1 | inactive: 3.24%
CC(C)c1ccc(S(=O)(=O)c2nnn3c2nc(NC2CCCC2)c2sccc23)cc1 | inactive: -1.72%
Cc1ccc(CSCC(=O)N2CCN(c3ccc(F)cc3)CC2)cc1 | inactive: -3.1%
Cc1ccc2c(=O)cc(CSc3ccccc3)[nH]c2c1C | inactive: -12.4%
COc1ccc(C(=O)NCc2ccc3c(c2)CCN3C(=O)c2ccncc2)cc1 | inactive: -25.9%
CN1c2ccccc2-c2nc(SCC(=O)Nc3ccccc3C(F)(F)F)ncc2S1(=O)=O | inactive: -4.12%
COc1ccc2c(c1)-c1nc(NC(=O)c3cc(Cl)ccc3OC)sc1CC2 | inactive: -2.86%
Cc1ccc(CN2CCCn3nc(C(=O)NCCc4ccc(Cl)cc4)cc3C2=O)cc1 | inactive: -8.13%

Compound | activity change, negative = cytotoxicity
COc1ccccc1CNC(=O)CCn1c(=O)c2ccccc2n(CC(=O)Nc2ccc(C)cc2C)c1=O | inactive: -4.58%
CCN(Cc1ccccc1)C(=O)Cn1c(=O)n(Cc2ccccc2)c(=O)c2c1c1cc(OC)ccc1n2C | inactive: 24.1%
COc1ccc(C(CC(=O)Nc2ccc(C)c(C)c2)N2Cc3ccccc3C2=O)cc1OC (stereo not drawn) | inactive: 2.98%
Cc1ccc(CSc2nc3ccc(NC(=O)C(C)C)cc3s2)cc1 | inactive: 3.85%
CCOC(=O)C1=C(CS(=O)(=O)c2ccc(Br)cc2)NC(=O)NC1c1ccccc1 (stereo not drawn) | inactive: -4.54%
Cc1ccccc1CNC(=O)c1ccc(-c2nc(CS(=O)(=O)c3ccccc3)c(C)o2)cc1 | inactive: -14.2%
COC(=O)c1cc(NC(=O)Cn2nc(C)n3cccc3c2=O)cc(C(=O)OC)c1 | inactive: 17.3%
Cc1ccc(-c2c(C(=O)NCc3ccccc3)oc(=O)c3ccccc23)cc1 | inactive: 3.53%
COc1cc(NC(=O)c2cc(Cl)c(OC)c(Cl)c2)ccc1NC(=O)c1cc2ccccc2o1 | inactive: 3.09%
CC(=O)c1c(C)oc2ccc(N(C(=O)Oc3ccccc3)S(=O)(=O)c3ccc(C(C)(C)C)cc3)cc12 | inactive: 2.35%
CCc1cccc(C)c1NC(=O)c1cc(C)nc2c1c(C)nn2-c1cccc(Cl)c1C | inactive: -2.35%
COc1ccc(C)cc1NC(=O)CN(c1cc(C(F)(F)F)ccc1Cl)S(C)(=O)=O | inactive: 25.8%
C=CCc1cccc2cc(C(=O)Nc3cccc(Cl)c3)c(=O)oc12 | inactive: 7.79%
CCOC(=O)c1sc2ccccc2c1S(=O)(=O)Nc1cccc(C(F)(F)F)c1 | inactive: -3.9%
CCCCN(C)C(=O)C(Cc1ccccc1)NS(=O)(=O)c1ccc2c(c1)c(=O)n(C)c(=O)n2C (stereo not drawn) | inactive: 0.188%
COc1ccc(-c2nnc(SCC(=O)Oc3c(C)cccc3C)o2)cc1OC | inactive: 0.0992%
Cc1oc(-c2cccc(Cl)c2)nc1CN1CCCC(C(=O)NCc2ccc(F)cc2)C1 (stereo not drawn) | inactive: -16.3%
CC(C)OCCCNC(=O)c1ccc2c(=O)n(CCc3ccccc3)c(=O)[nH]c2c1 | inactive: 3.34%
Cc1coc2c1c(C)cc1oc(=O)cc(C)c12 | inactive: -14.9%
COc1ccc(N(CC(=O)NCc2ccc(F)cc2)S(=O)(=O)c2c(C)n[nH]c2C)cc1 | inactive: 2.53%
COc1ccc(OCCCn2c(=O)oc3ccc(C)cc32)cc1 | inactive: 8.14%
CCc1ccc(NC(=O)c2ccc(F)c(S(=O)(=O)N3CCC(C)CC3)c2)cc1 | inactive: 0.19%
COc1cc2c(cc1NS(=O)(=O)c1cccc(C#N)c1)n(C)c(=O)n2C | inactive: 1.44%
Cc1cc(C)cc(NC(=O)CN2C(=O)c3ccccc3Sc3ccc(C(=O)N4CCOCC4)cc32)c1 | inactive: 16.2%
